The whole screen tested about 350,000 compounds, of which about 31,000 (8.9%) were called active. Inconclusive means that the source gave no clear call. Such entries were picked first, then a sample of the others. Calls come from the whole dose curve; as a rule, active = well fitted inhibition curve with a large enough effect; inconclusive = small, poorly fitted or top-dose-only effect; inactive = no such curve, though single readings can be large or run the other way. Potencies beside an inconclusive call are fits to weak or partial responses and may not hold up.
These compounds were tested against Histone-lysine N-methyltransferase EHMT2 (Homo sapiens) (UniProt Q96KQ7) (assay: qHTS Assay for Inhibitors of Histone Lysine Methyltransferase G9a). Conditions: G9a H3K9 monomethylation, AlphaScreen, 2 h; activity, negative = inhibition: at 59 µM (top of the series) unless noted.
UniProt Q96KQ7, sequence (Q96KQ7 whole entry, looked up): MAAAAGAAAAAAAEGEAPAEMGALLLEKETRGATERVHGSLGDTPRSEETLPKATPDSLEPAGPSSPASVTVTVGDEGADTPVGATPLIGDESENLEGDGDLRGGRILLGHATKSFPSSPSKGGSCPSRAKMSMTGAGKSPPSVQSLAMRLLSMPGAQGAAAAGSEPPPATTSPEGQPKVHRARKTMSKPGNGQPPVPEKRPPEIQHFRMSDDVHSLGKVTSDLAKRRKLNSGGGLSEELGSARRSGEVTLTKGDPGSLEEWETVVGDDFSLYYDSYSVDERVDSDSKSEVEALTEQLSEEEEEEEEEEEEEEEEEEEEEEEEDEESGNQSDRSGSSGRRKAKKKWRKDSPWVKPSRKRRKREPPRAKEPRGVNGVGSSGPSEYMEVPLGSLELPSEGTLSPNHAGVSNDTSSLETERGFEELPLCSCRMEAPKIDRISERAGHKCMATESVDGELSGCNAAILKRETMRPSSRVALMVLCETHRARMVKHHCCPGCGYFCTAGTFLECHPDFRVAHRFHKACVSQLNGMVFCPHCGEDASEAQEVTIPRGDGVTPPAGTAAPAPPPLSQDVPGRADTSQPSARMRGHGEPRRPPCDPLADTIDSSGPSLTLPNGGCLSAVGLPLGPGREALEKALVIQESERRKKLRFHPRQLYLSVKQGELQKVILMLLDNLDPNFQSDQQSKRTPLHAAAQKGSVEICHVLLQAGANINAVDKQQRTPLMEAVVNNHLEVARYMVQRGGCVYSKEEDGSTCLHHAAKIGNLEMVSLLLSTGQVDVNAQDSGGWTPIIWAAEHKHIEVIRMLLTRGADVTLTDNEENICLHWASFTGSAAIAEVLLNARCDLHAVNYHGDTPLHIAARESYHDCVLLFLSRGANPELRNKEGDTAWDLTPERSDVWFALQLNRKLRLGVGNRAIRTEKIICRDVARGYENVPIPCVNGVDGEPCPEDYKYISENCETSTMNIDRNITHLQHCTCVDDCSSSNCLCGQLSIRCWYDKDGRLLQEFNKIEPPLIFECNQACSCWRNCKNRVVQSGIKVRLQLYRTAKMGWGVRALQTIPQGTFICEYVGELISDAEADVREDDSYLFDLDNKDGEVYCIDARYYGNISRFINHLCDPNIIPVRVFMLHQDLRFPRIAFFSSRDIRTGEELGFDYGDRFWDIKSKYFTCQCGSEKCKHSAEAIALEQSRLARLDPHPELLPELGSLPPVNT
Outline: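 G9a (20 nM) preincubated 15 min RT with compounds, then 500 nM biotinylated H3K9 peptide and 20 uM SAM added; 2 h RT reaction. Monomethyl-H3K9 product detected by AlphaScreen with anti-H3K9me1 antibody, streptavidin donor and anti-rabbit IgG acceptor beads.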
% is set by controls: 0 for no effect and ±100 for the full control effect; potency is the fitted concentration of half-maximal effect; tags give direction and shape of the fitted curve.
Note: nearly all actives have a fitted effect of over 75% in size.

SMILES	Potency	activity, negative = inhibition
Cc1ccc2c(=O)cc(C(=O)Nc3ccc(S(=O)(=O)N(C)Cc4ccccc4)cc3)oc2c1C	inconclusive: 0.199 µM [inhibitor, partial curve, poor fit]	–
COc1ccc2oc(C(=O)c3ccccc3)c(NC(=O)CN3CCN(C)CC3)c2c1	inconclusive: 56.2 µM [inhibitor, partial curve, poor fit]	–
Clc1ccc(Cn2nnc(-c3ccc(CN4CCOCC4)cc3)n2)cc1	inconclusive: 5.01 µM [inhibitor, single point]	–
O=C(c1ccccc1)N1CCN(C(=O)c2ccccc2)CC1	inconclusive: 22.4 µM [inhibitor, single point]	–
CCCCCC1CC(CC(=O)NC(=S)Nc2ccccc2Cl)C(=O)O1 (configuration not stated)	–	inactive: 7.31% [at 102 µM]
CC(=O)NC12CC3CC(C1)CC(C(=O)Nc1nc4c(C)cccc4s1)(C3)C2	inconclusive: 22.4 µM [inhibitor, partial curve, poor fit]	–
Cc1nn(Cc2ccccc2)c(C)c1C(=O)OCC(=O)c1cc(C)n(CC(F)(F)F)c1C	inconclusive: 89.1 µM [inhibitor, single point]	–
C/C(CC(=O)NCc1ccc(Cl)cc1)=N\NC(=O)COc1ccc(C)cc1Br	–	inactive: 15.9% [at 102 µM]
COc1ccc(N2C(=O)C(Cl)=C(Nc3ccc(OC)cc3OC)C2=O)cc1	inconclusive: 79.4 µM [inhibitor, single point]	–
COc1ccc(OC)c(N/C(C)=C/C(=O)c2ccc(Br)cc2)c1	inconclusive: 44.7 µM [inhibitor, partial curve, poor fit]	–
COc1ccc(-c2ccc(/C=N/N3C(=O)C4C5C=CC(C6CC56)C4C3=O)o2)c([N+](=O)[O-])c1 (configuration not stated)	inconclusive: 25.1 µM [inhibitor, single point]	–
CCc1nnc(SCC(=O)Nc2ccc(C(C)=O)cc2)nc1CC	–	inactive: -6.01% [at 12.7 µM]
COc1ccc(NC(=O)C2=CC(c3ccc4c(c3)OCO4)=NS(=O)(=O)N2C)cc1	inconclusive: 39.8 µM [inhibitor, single point]	–
Cn1c(/C(C#N)=C(\O)COc2ccc3ccccc3c2)nc2ccccc21	inconclusive: 7.08 µM [inhibitor, single point]	–
COc1ccc(C2c3c(oc4ccc(C)cc4c3=O)C(=O)N2CCCN2CCOCC2)cc1OC (configuration not stated)	–	inactive: -21.3%
Cc1ccc(C)c(OCc2cc(C(=O)NC3CCOC(C)(C)C3)no2)c1 (configuration not stated)	inconclusive: 89.1 µM [inhibitor, single point]	–
c1ccc(Cc2nn3c(C4COc5ccccc5O4)nnc3s2)cc1 (configuration not stated)	active: 5.01 µM	–
O=C(CCSc1nnc(-c2ccccc2)o1)N1CCOCC1	inconclusive: 39.8 µM [inhibitor, single point]	–
NC(=O)Cc1nc(-c2ccc(F)cc2)cs1	active: 22.4 µM	–
O=S(=O)(Nc1ccc(Br)cn1)c1ccc(Cl)s1	inconclusive: 79.4 µM [inhibitor, single point]	–
CCOC(=O)C1CCCN(S(=O)(=O)c2cc3c4c(c2)CC(=O)N4CCC3)C1 (configuration not stated)	–	inactive: 2.72%

SMILES	Potency	activity, negative = inhibition
Cc1nc(NC(=O)COC(=O)c2ccc(S(=O)(=O)N3CCc4ccccc4C3)cc2)c(Cl)cc1Cl	inconclusive: 31.6 µM [inhibitor, partial curve, poor fit]	–
Cc1cc(C(F)(F)F)n2[nH]c(=O)c(N=Nc3ccccc3)c2n1	inconclusive: 0.891 µM [inhibitor, full curve]	–
O=C(COC(=O)COc1ccc(Cl)cc1)Nc1ccc(N2CCOCC2)cc1	inconclusive: 10 µM [inhibitor, partial curve, poor fit]	–
C/C(=C\C(=O)c1ccc(C)cc1)Nc1cccc(O)c1	active: 50.1 µM	–
COc1ccc(CNCc2ccc(C(F)(F)F)cc2)cc1OC	active: 79.4 µM	–
Cc1[nH]n(-c2ccccc2)c(=O)c1-c1ccccc1	–	inactive: 18.4%
CCn1nc(C(=O)OCC(=O)c2ccc3c(c2)OCCO3)c2ccccc2c1=O	inconclusive: 50.1 µM [inhibitor, partial curve, poor fit]	–
C#CCN1C(=O)S/C(=C\c2ccc(-c3ccc(C(=O)O)cc3C)o2)C1=O	inconclusive: 28.2 µM [inhibitor, single point]	–
COc1cccc(CNC(=O)c2oc3c(c2C)-c2nn(Cc4cccc(Cl)c4)cc2CC3)c1	inconclusive: 8.91 µM [inhibitor, full curve, poor fit]	–
CCCc1nn(-c2ccccc2)c2c1C(c1cccs1)C(C#N)=C(N)O2 (configuration not stated)	–	inconclusive: -114% [inhibitor]
COC(=O)C1=C(C)OC(N)=C(C#N)C1c1ccsc1 (configuration not stated)	inconclusive: 39.8 µM [inhibitor, single point]	–
CCOC(=O)C1CCN(C2CC(=O)N(c3ccc(OCC)cc3)C2=O)CC1 (configuration not stated)	inconclusive: 25.1 µM [inhibitor, single point]	–
COc1cccc(C2CC(=O)Nc3c2c(=O)[nH]c2ncnn32)c1 (configuration not stated)	–	inactive: 0.647% [at 102 µM]
CCOc1ccc(-c2cc(C(=O)N3CCCC3)c3ccccc3n2)cc1	inconclusive: 89.1 µM [inhibitor, single point]	–
CN1CCC(N(C)C(=O)c2ccccc2Nc2ccc(SC(F)F)cc2)CC1	inconclusive: 56.2 µM [inhibitor, partial curve]	–
CC1(C)Cc2c(C#N)c(SCc3ccccc3)nc(N3CCOCC3)c2CO1	–	inactive: -32.2% [at 0.0925 µM]
CCN=C1S/C(=C\c2ccc(OC)c(OCC)c2)C(=O)N1CC	inconclusive: 1.26 µM [inhibitor, partial curve, poor fit]	–
COc1cccc(OC)c1C(=O)N1CCN(Cc2cccnc2)CC1	active: 7.08 µM	–
CCOc1ccc(/C=C2\SC(=S)N(NC(=O)c3ccncc3)C2=O)cc1OC	inconclusive: 79.4 µM [inhibitor, single point]	–
CCN(C(=O)CN1C(=O)COc2ccc(S(=O)(=O)N3CCCCCC3)cc21)c1cccc(C)c1	–	inactive: 13.1% [at 102 µM]
COc1ccccc1C(=O)NCC(=O)OCC(=O)N(CC(C)C)c1c(N)n(Cc2ccccc2)c(=O)[nH]c1=O	active: 56.2 µM	–

From PubChem BioAssay AID504332 (National Center for Advancing Translational Sciences (NCATS), 2011)
